Laboratory results: patent US20230203100A1, “COMPOSITIONS INCLUDING MULTI-AGONIST PEPTIDES AND METHODS OF MANUFACTURE AND USE” (Pep2Tango Therapeutics Inc., priority 2021, published 2023)
Non-standard residues stand in square brackets, D forms with d.

B1: Y-(d)AEGTFTSDYSIALDKIAQQAFVQWLLAGGPSCNTATCVLGRLSQELHRLQTYPRTNTGK*-N-T-Y-NH2 (peptide)
chain: Y[dA]EGTFTSDYSIALDKIAQQAFVQWLLAGGPSCNTATCVLGRLSQELHRLQTYPRTNTGKNTY-NH2
modifications: not fully specified (residue 60); also: acyl end R3 and chain length n (12-20) not fixed
notes: K* indicates a linking group, e.g. Lys-γGlu-γGlu—C(═O)(CH2)nR3

Assay: Blood glucose after single s.c. administration in non-fasted mice
Type: in vivo
Conditions: for Blood glucose 30 min / Blood glucose 120 min / Blood glucose Time 0: 50 nmoles/Kg single s.c., mean±SEM; for Blood glucose 30 min: 30 min after injection; for Blood glucose 120 min: 120 min after injection; for Blood glucose Time 0: time 0 (baseline)
Experimental: Differences were considered statistically significant at p<0.05. Data analysis was carried out with GraphPad software (GraphPad Prism).

Molecule	Significant reduction of blood glucose at 30 and 120 min compared to time 0 (50 nmol/kg single s.c., result in words)	Blood glucose 30 min [mg/dL]	Blood glucose 120 min [mg/dL]	Blood glucose Time 0 [mg/dL]
Cagrilintide (KCNTATCATQRLAEFLRHSSNNFGPILPPTNVGSNTP; chains of the INN, looked up) [a dual calcitonin/amylin agonist, reference compound]	not	163.2 ± 3.62	157.0 ± 3.85	150.2 ± 1.36
B1		142.0 ± 8.15	132.0 ± 5.28	170.8 ± 3.53
